From patent publication US20170101477A1 (Regeneron, published 2017) come the findings set out here.

The target in the assay is T1, human Leptin (R&D Systems, #398-LP) (human, UniProt P41159).
T1 construct: Bought reagent; also called hLeptin; recombinant human leptin
Briefly: blocking ELISA: 10 nM hLEPR.hFc pre-incubated with titrated soluble hLeptin, then added to plate-coated hLeptin; bound hLEPR.hFc detected with anti-human IgG-HRP, absorbance at 450 nm. The method, then: These antibody-protein or protein-protein complexes were then incubated for 1.5 hour at room temperature (RT). […] Samples were developed with a TMB solution (BD Biosciences, #555214; substrate A and B mixed at 1:1 ratio as per manufacturer's instructions) to produce a colorimetric reaction and then neutralized with 1M sulfuric acid before measuring absorbance at 450 nm on a Victor X5 plate reader.
In general terms: An ELISA detects its analyte on a solid surface through an enzyme-linked reagent.

B1: extracellular domain portion of LEPR protein expressed with a C-terminal human Fc tag (hLEPR.hFc) (Fc fusion)
chain: FNLSYPITPWRFKLSCMPPNSTYDYFLLPAGLSKNTSNSNGHYETAVEPKFNSSGTHFSNLSKTTFHCCFRSEQDRNCSLCADNIEGKTFVSTVNSLVFQQIDANWNIQCWLKGDLKLFICYVESLFKNLFRNYNYKVHLLYVLPEVLEDSPLVPQKGSFQMVHCNCSVHECCECLVPVPTAKLNDTLLMCLKITSGGVIFQSPLMSVQPINMVKPDPPLGLHMEITDDGNLKISWSSPPLVPFPLQYQVKYSENSTTVIREADKIVSATSLLVDSILPGSSYEVQVRGKRLDGPGIWSDWSTPRVFTTQDVIYFPPKILTSVGSNVSFHCIYKKENKIVPSKEIVWWMNLAEKIPQSQYDVVSDHVSKVTFFNLNETKPRGKFTYDAVYCCNEHECHHRYAELYVIDVNINISCETDGYLTKMTCRWSTSTIQSLAESTLQLRYHRSSLYCSDIPSIHPISEPKDCYLQSDGFYECIFQPIFLLSGYTMWIRINHSLGSLDSPPTCVLPDSVVKPLPPSSVKAEITINIGLLKISWEKPVFPENNLQFQIRYGLSGKEVQWKMYEVYDAKSKSVSLPVPDLCAVYAVQVRCKRLDGLGYWSNWSNPAYTVVMDIKVPMRGPEFWRIINGDTMKKEKNVTLLWKPLMKNDSLCSVQRYVINHHTSCNGTWSEDVGNHTKFTFLWTEQAHTVTVLAINSIGASVANFNLTFSWPMSKVNIVQSLSAYPLNSSCVIVSWILSPSDYKLMYFIIEWKNLNEDGEIKWLRISSSVKKYYIHDHFIPIEKYQFSLYPIFMEGVGKPKIINSFTQDDIEKHQSD[gap - human IgG1 Fc]
notes: also called dimeric human LEPR
Regarding B1, the binding result was “binds”.
